# The other results are listed elsewhere or left out.
# B1: rCnSL-proA (Clitocybe nebularis) (protein)
# chain: AAFFSLVVLLALLPFGIHASALPSTELTPRVNPNLPGPNDVFVGFRGTNNIVGAIYEKDGIKDTPLNNGADAEMGPGSYITDGLFTARIFASGSAGNNPGTTATVCKIYASGVQWRGAPKGYIPVAYFGNGPTAEQRRQTYLRTLGLPGTAIRFGNLNTNPGQGPTAPRQMVVPPGPLRSLLKASCFPAADTRLPQTLHYFEKRVDWNIITAADSQTWGH
# Key:
# Experiment in all cases: glycan array binding signal (z-score within array); higher = stronger binding
# Details in all cases: glycan notation: IUPAC condensed, linker removed
# [1] = target: Fuc(a1-2)Gal6S(b1-3)GlcNAc6S
# Method in brief: (§1)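 Negative Z-scores can be read as non-binding. The Z-score is calculated within each array and then averaged across arrays of one protein sequence at different concentrations or buffers and across linkers. Arrays, 3228 in all, were curated from the Consortium for Functional Glycomics database and kept only where the protein sequence was available.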
# Fuc(a1-2)Gal6S(b1-4)Glc = target: Fuc(a1-2)Gal6S(b1-4)Glc
# Method in brief: as §1
# [2] = target: Fuc(a1-2)Gal6S(b1-4)Glc6S
# Method in brief: as §1
# Fuc(a1-2)[Gal(a1-3)]Gal = target: Fuc(a1-2)[Gal(a1-3)]Gal
# Method in brief: as §1
# [3] = target: Fuc(a1-2)[Gal(a1-3)]Gal(b1-3)GalNAc
# Method in brief: as §1
# [4] = target: Fuc(a1-2)[Gal(a1-3)]Gal(b1-3)GalNAc(b1-3)Gal(a1-4)Gal(b1-4)Glc
# Method in brief: as §1
# [5] = target: Fuc(a1-2)[Gal(a1-3)]Gal(b1-3)GlcNAc
# Method in brief: as §1
# [6] = target: Fuc(a1-2)[Gal(a1-3)]Gal(b1-3)GlcNAc(b1-2)Man(a1-3)[Fuc(a1-2)[Gal(a1-3)]Gal(b1-3)GlcNAc(b1-2)Man(a1-6)]Man(b1-4)GlcNAc(b1-4)GlcNAc
# Method in brief: as §1
# [7] = target: Fuc(a1-2)[Gal(a1-3)]Gal(b1-3)GlcNAc(b1-2)Man(a1-3)[Fuc(a1-2)[Gal(a1-3)]Gal(b1-3)GlcNAc(b1-2)Man(a1-6)]Man(b1-4)GlcNAc(b1-4)[Fuc(a1-6)]GlcNAc
# Method in brief: as §1
# [8] = target: Fuc(a1-2)[Gal(a1-3)]Gal(b1-3)GlcNAc(b1-3)GalNAc
# Method in brief: as §1
# [9] = target: Fuc(a1-2)[Gal(a1-3)]Gal(b1-3)GlcNAc(b1-6)GalNAc
# Method in brief: as §1
# [10] = target: Fuc(a1-2)[Gal(a1-3)]Gal(b1-4)Glc
# Method in brief: as §1
# [11] = target: Fuc(a1-2)[Gal(a1-3)]Gal(b1-4)GlcNAc
# Method in brief: as §1
# [12] = target: Fuc(a1-2)[Gal(a1-3)]Gal(b1-4)GlcNAc(b1-2)Man
# Method in brief: as §1
# [13] = target: Fuc(a1-2)[Gal(a1-3)]Gal(b1-4)GlcNAc(b1-2)Man(a1-3)[Fuc(a1-2)[Gal(a1-3)]Gal(b1-4)GlcNAc(b1-2)Man(a1-6)]Man(b1-4)GlcNAc(b1-4)GlcNAc
# Method in brief: as §1
# [14] = target: Fuc(a1-2)[Gal(a1-3)]Gal(b1-4)GlcNAc(b1-2)Man(a1-3)[Fuc(a1-2)[Gal(a1-3)]Gal(b1-4)GlcNAc(b1-2)Man(a1-6)]Man(b1-4)GlcNAc(b1-4)[Fuc(a1-6)]GlcNAc
# Method in brief: as §1
# [15] = target: Fuc(a1-2)[Gal(a1-3)]Gal(b1-4)GlcNAc(b1-3)GalNAc
# Method in brief: as §1
# [16] = target: Fuc(a1-2)[Gal(a1-3)]Gal(b1-4)GlcNAc(b1-3)[Fuc(a1-2)[Gal(a1-3)]Gal(b1-4)GlcNAc(b1-6)]GalNAc
# Method in brief: as §1
# [17] = target: Fuc(a1-2)[Gal(a1-3)]Gal(b1-4)GlcNAc(b1-6)GalNAc
# Method in brief: as §1
# [18] = target: Fuc(a1-2)[Gal(a1-3)]Gal(b1-4)[Fuc(a1-3)]Glc
# Method in brief: as §1
# [19] = target: Fuc(a1-2)[Gal(a1-3)]Gal(b1-4)[Fuc(a1-3)]GlcNAc
# Method in brief: as §1
# [20] = target: Fuc(a1-2)[Gal(a1-3)]Gal(b1-4)[Fuc(a1-3)]GlcNAc(b1-3)GalNAc
# Method in brief: as §1
# [21] = target: Fuc(a1-2)[Gal(a1-4)]Gal(b1-4)GlcNAc
# Method in brief: as §1
# [22] = target: Fuc(a1-2)[GalNAc(a1-3)]Gal
# Method in brief: as §1
# [23] = target: Fuc(a1-2)[GalNAc(a1-3)]Gal(b1-3)GalNAc(a1-3)[Fuc(a1-2)]Gal(b1-4)GlcNAc
# Method in brief: as §1
# [24] = target: Fuc(a1-2)[GalNAc(a1-3)]Gal(b1-3)GalNAc(b1-3)Gal(a1-4)Gal(b1-4)Glc
# Method in brief: as §1
# [25] = target: Fuc(a1-2)[GalNAc(a1-3)]Gal(b1-3)GlcNAc
# Method in brief: as §1
# [26] = target: Fuc(a1-2)[GalNAc(a1-3)]Gal(b1-3)GlcNAc(b1-2)Man(a1-3)[Fuc(a1-2)[GalNAc(a1-3)]Gal(b1-3)GlcNAc(b1-2)Man(a1-6)]Man(b1-4)GlcNAc(b1-4)GlcNAc
# Method in brief: as §1
# [27] = target: Fuc(a1-2)[GalNAc(a1-3)]Gal(b1-3)GlcNAc(b1-2)Man(a1-3)[Fuc(a1-2)[GalNAc(a1-3)]Gal(b1-3)GlcNAc(b1-2)Man(a1-6)]Man(b1-4)GlcNAc(b1-4)[Fuc(a1-6)]GlcNAc
# Method in brief: as §1
# [28] = target: Fuc(a1-2)[GalNAc(a1-3)]Gal(b1-3)GlcNAc(b1-3)GalNAc
# Method in brief: as §1
# [29] = target: Fuc(a1-2)[GalNAc(a1-3)]Gal(b1-3)GlcNAc(b1-6)GalNAc
# Method in brief: as §1
# [30] = target: Fuc(a1-2)[GalNAc(a1-3)]Gal(b1-4)Glc
# Method in brief: as §1
# [31] = target: Fuc(a1-2)[GalNAc(a1-3)]Gal(b1-4)GlcNAc
# Method in brief: as §1
# [32] = target: Fuc(a1-2)[GalNAc(a1-3)]Gal(b1-4)GlcNAc(b1-2)Man
# Method in brief: as §1
# [33] = target: Fuc(a1-2)[GalNAc(a1-3)]Gal(b1-4)GlcNAc(b1-2)Man(a1-3)[Fuc(a1-2)[GalNAc(a1-3)]Gal(b1-4)GlcNAc(b1-2)Man(a1-6)]Man(b1-4)GlcNAc(b1-4)GlcNAc
# Method in brief: as §1
# [34] = target: Fuc(a1-2)[GalNAc(a1-3)]Gal(b1-4)GlcNAc(b1-2)Man(a1-3)[Fuc(a1-2)[GalNAc(a1-3)]Gal(b1-4)GlcNAc(b1-2)Man(a1-6)]Man(b1-4)GlcNAc(b1-4)[Fuc(a1-6)]GlcNAc
# Method in brief: as §1
# [35] = target: Fuc(a1-2)[GalNAc(a1-3)]Gal(b1-4)GlcNAc(b1-3)Gal(b1-4)GlcNAc
# Method in brief: as §1
# [36] = target: Fuc(a1-2)[GalNAc(a1-3)]Gal(b1-4)GlcNAc(b1-3)Gal(b1-4)GlcNAc(b1-3)Gal(b1-4)GlcNAc
# Method in brief: as §1
# [37] = target: Fuc(a1-2)[GalNAc(a1-3)]Gal(b1-4)GlcNAc(b1-3)GalNAc
# Method in brief: as §1
# [38] = target: Fuc(a1-2)[GalNAc(a1-3)]Gal(b1-4)GlcNAc(b1-3)[Fuc(a1-2)[GalNAc(a1-3)]Gal(b1-4)GlcNAc(b1-6)]GalNAc
# Method in brief: as §1
# [39] = target: Fuc(a1-2)[GalNAc(a1-3)]Gal(b1-4)GlcNAc(b1-6)GalNAc
# Method in brief: as §1
# [40] = target: Fuc(a1-2)[GalNAc(a1-3)]Gal(b1-4)[Fuc(a1-3)]GlcNAc
# Method in brief: as §1
# [41] = target: Fuc(a1-2)[GalNAc(a1-3)]Gal(b1-4)[Fuc(a1-3)]GlcNAc(b1-3)GalNAc
# Method in brief: as §1
# [42] = target: Fuc(a1-2)[GalNAc(a1-4)]Gal(b1-4)GlcNAc
# Method in brief: as §1
# [43] = target: Fuc(a1-2)[GalNAc(b1-3)]Gal
# Method in brief: as §1
binder,measurement,setting,value
B1,glycan array binding signal (z-score),[1],0.338
same,glycan array binding signal (z-score),Fuc(a1-2)Gal6S(b1-4)Glc,-0.35
same,glycan array binding signal (z-score),[2],-0.281
same,glycan array binding signal (z-score),Fuc(a1-2)[Gal(a1-3)]Gal,-0.219
same,glycan array binding signal (z-score),[3],-0.214
same,glycan array binding signal (z-score),[4],-0.278
same,glycan array binding signal (z-score),[5],-0.04
same,glycan array binding signal (z-score),[6],0.319
same,glycan array binding signal (z-score),[7],0.768
same,glycan array binding signal (z-score),[8],0.321
same,glycan array binding signal (z-score),[9],0.055
same,glycan array binding signal (z-score),[10],-0.005
same,glycan array binding signal (z-score),[11],-0.394
same,glycan array binding signal (z-score),[12],-0.398
same,glycan array binding signal (z-score),[13],-0.363
same,glycan array binding signal (z-score),[14],0.409
same,glycan array binding signal (z-score),[15],-0.538
same,glycan array binding signal (z-score),[16],-0.073
same,glycan array binding signal (z-score),[17],-0.306
same,glycan array binding signal (z-score),[18],-0.598
same,glycan array binding signal (z-score),[19],-0.146
same,glycan array binding signal (z-score),[20],-0.588
same,glycan array binding signal (z-score),[21],0.128
same,glycan array binding signal (z-score),[22],-0.39
same,glycan array binding signal (z-score),[23],-0.544
same,glycan array binding signal (z-score),[24],-0.274
same,glycan array binding signal (z-score),[25],0.497
same,glycan array binding signal (z-score),[26],-0.563
same,glycan array binding signal (z-score),[27],0.696
same,glycan array binding signal (z-score),[28],0.293
same,glycan array binding signal (z-score),[29],-0.439
same,glycan array binding signal (z-score),[30],-0.488
same,glycan array binding signal (z-score),[31],-0.387
same,glycan array binding signal (z-score),[32],-0.723
same,glycan array binding signal (z-score),[33],-0.716
same,glycan array binding signal (z-score),[34],1.61
same,glycan array binding signal (z-score),[35],-0.422
same,glycan array binding signal (z-score),[36],0.32
same,glycan array binding signal (z-score),[37],-0.606
same,glycan array binding signal (z-score),[38],-0.16
same,glycan array binding signal (z-score),[39],-0.494
same,glycan array binding signal (z-score),[40],0.05
same,glycan array binding signal (z-score),[41],1.05
same,glycan array binding signal (z-score),[42],-1.23
same,glycan array binding signal (z-score),[43],-0.69
